# Measurements from the supplement of paper PMC8728848.
# The other results are listed elsewhere or left out.
# B1: DC-ASGPR L+GEE (Homo sapiens) (protein)
# chain: MTRTYENFQYLENKVKVQGFKNGPLPLQSLLQRLRSGPCHLLLSLGLGLLLLVIICVVGFQNSKFQRDLVTLRTDFSNFTSNTVAEIQALTSQGSSLEETIASLKAEVEGFKQERQAGVSELQEHTTQKAHLGHCPHCPSVCVPVHSEMLLRVQQLVQDLKKLTCQVATLNNNGEEASTEGTCCPVNWVEHQDSCYWFSHSGMSWAEAEKYCQLKNAHLVVINSREEQNFVQKYLGSAYTWMGLSDPEGAWKWVDGTDYATGFQNWKPGQPDDWQGHGLGGGEDCAHFHPDGRWNDDVCQRPYHWVCEAGLGQTSQESH
# Experiments:
# Assay in all cases: glycan array binding signal (z-score within array); higher = stronger binding
# Conditions in all cases: glycan notation: IUPAC condensed, linker removed
# [1] = target: Gal(b1-3)[Fuc(a1-4)]GlcNAc(b1-3)Gal(b1-4)[Fuc(a1-3)]GlcNAc
# Method in brief: (§1)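 From the Consortium for Functional Glycomics database, 3228 arrays were curated, keeping only those whose protein sequence was available. Binding is given as a within-array Z-score averaged across arrays sharing a protein sequence and across linkers. Negative Z-scores can be read as non-binding.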
# [2] = target: Gal(b1-3)[Fuc(a1-4)]GlcNAc(b1-6)GalNAc
# Method in brief: as §1
# [3] = target: Gal(b1-3)[GlcNAc(b1-6)]GalNAc
# Method in brief: as §1
# [4] = target: Gal(b1-3)[Neu5Ac(a2-6)]GalNAc
# Method in brief: as §1
# [5] = target: Gal(b1-3)[Neu5Ac(a2-6)]GlcNAc(b1-4)Gal(b1-4)Glc
# Method in brief: as §1
# [6] = target: Gal(b1-3)[Neu5Ac(b2-6)]GalNAc
# Method in brief: as §1
# [7] = target: Gal(b1-4)Gal
# Method in brief: as §1
# [8] = target: Gal(b1-4)GalNAc(a1-3)[Fuc(a1-2)]Gal(b1-4)GlcNAc
# Method in brief: as §1
# [9] = target: Gal(b1-4)GalNAc(b1-3)[Fuc(a1-2)]Gal(b1-4)GlcNAc
# Method in brief: as §1
# [10] = target: Gal(b1-4)Glc
# Method in brief: as §1
# [11] = target: Gal(b1-4)Glc6S
# Method in brief: as §1
# [12] = target: Gal(b1-4)GlcNAc
# Method in brief: as §1
# [13] = target: Gal(b1-4)GlcNAc(a1-6)Gal(b1-4)GlcNAc
# Method in brief: as §1
# [14] = target: Gal(b1-4)GlcNAc(b1-2)Man
# Method in brief: as §1
# [15] = target: Gal(b1-4)GlcNAc(b1-2)Man(a1-3)Man(b1-4)GlcNAc(b1-4)GlcNAc
# Method in brief: as §1
# [16] = target: Gal(b1-4)GlcNAc(b1-2)Man(a1-3)[Gal(b1-4)GlcNAc(b1-2)Man(a1-6)]Man(b1-4)GlcNAc(b1-4)GlcNAc
# Method in brief: as §1
# [17] = target: Gal(b1-4)GlcNAc(b1-2)Man(a1-3)[Gal(b1-4)GlcNAc(b1-2)Man(a1-6)]Man(b1-4)GlcNAc(b1-4)[Fuc(a1-6)]GlcNAc
# Method in brief: as §1
# [18] = target: Gal(b1-4)GlcNAc(b1-2)Man(a1-3)[Gal(b1-4)GlcNAc(b1-2)Man(a1-6)][Gal(b1-4)GlcNAc(b1-4)]Man(b1-4)GlcNAc(b1-4)[Fuc(a1-6)]GlcNAc
# Method in brief: as §1
# [19] = target: Gal(b1-4)GlcNAc(b1-2)Man(a1-3)[Gal(b1-4)GlcNAc(b1-2)Man(a1-6)][GlcNAc(b1-4)]Man(b1-4)GlcNAc(b1-4)[Fuc(a1-6)]GlcNAc
# Method in brief: as §1
# [20] = target: Gal(b1-4)GlcNAc(b1-2)Man(a1-3)[GlcNAc(b1-2)Man(a1-6)]Man(b1-4)GlcNAc(b1-4)GlcNAc
# Method in brief: as §1
# [21] = target: Gal(b1-4)GlcNAc(b1-2)Man(a1-3)[GlcNAc(b1-4)][Gal(b1-4)GlcNAc(b1-2)Man(a1-6)]Man(b1-4)GlcNAc(b1-4)GlcNAc
# Method in brief: as §1
# [22] = target: Gal(b1-4)GlcNAc(b1-2)Man(a1-3)[Man(a1-6)]Man(b1-4)GlcNAc(b1-4)GlcNAc
# Method in brief: as §1
# [23] = target: Gal(b1-4)GlcNAc(b1-2)Man(a1-6)Man(b1-4)GlcNAc(b1-4)GlcNAc
# Method in brief: as §1
# [24] = target: Gal(b1-4)GlcNAc(b1-2)Man(a1-6)[GlcNAc(b1-2)Man(a1-3)]Man(b1-4)GlcNAc(b1-4)GlcNAc
# Method in brief: as §1
# [25] = target: Gal(b1-4)GlcNAc(b1-2)Man(a1-6)[Man(a1-3)]Man(b1-4)GlcNAc(b1-4)GlcNAc
# Method in brief: as §1
# [26] = target: Gal(b1-4)GlcNAc(b1-2)[Gal(b1-4)GlcNAc(b1-4)]Man(a1-3)[Gal(b1-4)GlcNAc(b1-2)Man(a1-6)]Man(b1-4)GlcNAc(b1-4)GlcNAc
# Method in brief: as §1
# [27] = target: Gal(b1-4)GlcNAc(b1-2)[Gal(b1-4)GlcNAc(b1-4)]Man(a1-3)[Gal(b1-4)GlcNAc(b1-2)[Gal(b1-4)GlcNAc(b1-6)]Man(a1-6)]Man(b1-4)GlcNAc(b1-4)GlcNAc
# Method in brief: as §1
# [28] = target: Gal(b1-4)GlcNAc(b1-2)[Gal(b1-4)GlcNAc(b1-4)]Man(a1-3)[GlcNAc(b1-4)][Gal(b1-4)GlcNAc(b1-2)Man(a1-6)]Man(b1-4)GlcNAc(b1-4)GlcNAc
# Method in brief: as §1
# [29] = target: Gal(b1-4)GlcNAc(b1-2)[Gal(b1-4)GlcNAc(b1-4)]Man(a1-3)[GlcNAc(b1-4)][Gal(b1-4)GlcNAc(b1-2)[Gal(b1-4)GlcNAc(b1-6)]Man(a1-6)]Man(b1-4)GlcNAc(b1-4)GlcNAc
# Method in brief: as §1
# [30] = target: Gal(b1-4)GlcNAc(b1-2)[Gal(b1-4)GlcNAc(b1-6)]Man(a1-6)[Gal(b1-4)GlcNAc(b1-2)Man(a1-3)]Man(b1-4)GlcNAc(b1-4)GlcNAc
# Method in brief: as §1
# [31] = target: Gal(b1-4)GlcNAc(b1-2)[Gal(b1-4)GlcNAc(b1-6)]Man(a1-6)[Gal(b1-4)GlcNAc(b1-2)Man(a1-3)]Man(b1-4)GlcNAc(b1-4)[Fuc(a1-6)]GlcNAc
# Method in brief: as §1
# [32] = target: Gal(b1-4)GlcNAc(b1-2)[Gal(b1-4)GlcNAc(b1-6)]Man(a1-6)[GlcNAc(b1-4)][Gal(b1-4)GlcNAc(b1-2)Man(a1-3)]Man(b1-4)GlcNAc(b1-4)GlcNAc
# Method in brief: as §1
# [33] = target: Gal(b1-4)GlcNAc(b1-2)[Gal(b1-4)GlcNAc(b1-6)]Man(a1-6)[GlcNAc(b1-4)][Gal(b1-4)GlcNAc(b1-2)[Gal(b1-4)GlcNAc(b1-4)]Man(a1-3)]Man(b1-4)GlcNAc(b1-4)[Fuc(a1-6)]GlcNAc
# Method in brief: as §1
# [34] = target: Gal(b1-4)GlcNAc(b1-3)Gal(b1-3)GalNAc
# Method in brief: as §1
# [35] = target: Gal(b1-4)GlcNAc(b1-3)Gal(b1-3)GlcNAc
# Method in brief: as §1
# [36] = target: Gal(b1-4)GlcNAc(b1-3)Gal(b1-4)Glc
# Method in brief: as §1
# [37] = target: Gal(b1-4)GlcNAc(b1-3)Gal(b1-4)GlcNAc
# Method in brief: as §1
# [38] = target: Gal(b1-4)GlcNAc(b1-3)Gal(b1-4)GlcNAc(b1-2)Man(a1-3)[Gal(b1-4)GlcNAc(b1-3)Gal(b1-4)GlcNAc(b1-2)Man(a1-6)]Man(b1-4)GlcNAc(b1-4)GlcNAc
# Method in brief: as §1
binder,measurement,setting,value
B1,glycan array binding signal (z-score),[1],-0.367
same,glycan array binding signal (z-score),[2],1.22
same,glycan array binding signal (z-score),[3],-0.327
same,glycan array binding signal (z-score),[4],-0.3
same,glycan array binding signal (z-score),[5],-0.382
same,glycan array binding signal (z-score),[6],-0.037
same,glycan array binding signal (z-score),[7],-0.026
same,glycan array binding signal (z-score),[8],-0.748
same,glycan array binding signal (z-score),[9],-0.373
same,glycan array binding signal (z-score),[10],0.196
same,glycan array binding signal (z-score),[11],-0.159
same,glycan array binding signal (z-score),[12],-0.286
same,glycan array binding signal (z-score),[13],-0.551
same,glycan array binding signal (z-score),[14],0.398
same,glycan array binding signal (z-score),[15],-0.271
same,glycan array binding signal (z-score),[16],-0.343
same,glycan array binding signal (z-score),[17],-0.007
same,glycan array binding signal (z-score),[18],-0.406
same,glycan array binding signal (z-score),[19],-0.391
same,glycan array binding signal (z-score),[20],0.038
same,glycan array binding signal (z-score),[21],-0.418
same,glycan array binding signal (z-score),[22],-0.031
same,glycan array binding signal (z-score),[23],-0.364
same,glycan array binding signal (z-score),[24],0.573
same,glycan array binding signal (z-score),[25],0.114
same,glycan array binding signal (z-score),[26],-0.114
same,glycan array binding signal (z-score),[27],-0.562
same,glycan array binding signal (z-score),[28],-0.308
same,glycan array binding signal (z-score),[29],-0.775
same,glycan array binding signal (z-score),[30],-0.462
same,glycan array binding signal (z-score),[31],0.041
same,glycan array binding signal (z-score),[32],-0.309
same,glycan array binding signal (z-score),[33],-0.524
same,glycan array binding signal (z-score),[34],-0.773
same,glycan array binding signal (z-score),[35],-0.085
same,glycan array binding signal (z-score),[36],-0.147
same,glycan array binding signal (z-score),[37],0.001
same,glycan array binding signal (z-score),[38],0.828
